These results are taken from the supplement of paper PMC5499739.

Over roughly 16,000 sequences, “Z-score” has its median near -0.37; the highest 2% begin near 3.2. The list shows a part of the results.

The assay relates to RBM10 RRM1-ZnF (GST-tagged construct). In words: RNAcompete 7-mer binding Z-score; higher = stronger binding preference. The method in brief: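 Bound RNA was identified by microarray hybridisation after GST-tagged RBM10 constructs (20 pmol) had been mixed with 1.5 nmol of a designed pool of 241 399 RNAs up to 41 nt, transcribed from microarray-derived DNA templates. Binding ran for 30 min at 4°C in 1 ml Hepes pH 7.8 buffer with KCl, NaCl, glycerol, DTT, BSA and glutathione Sepharose beads, with four 2-min washes at 4°C afterwards. For every heptamer motif, a one-sided Z-score for enrichment was computed across the probes that contained it.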
Take UUACAGG: the “RNAcompete 7-mer binding Z-score” value worked out at 0.491.
In the case of AGCCAAG it was -0.298; in that of UCUUGAC, -0.873; in that of UGAACCC, -0.448.
As to AUUCUGU, the “RNAcompete 7-mer binding Z-score” value is -0.766.
For GCAAUCU, the “RNAcompete 7-mer binding Z-score” value is -0.613.
The value for UUACAUG was -0.405.
The value for UACAAGG was 1.06.
With UCGUGCU, the “RNAcompete 7-mer binding Z-score” value was -0.607.
CACGGAC: the “RNAcompete 7-mer binding Z-score” value worked out at 0.183.
In the case of CAGCCUU it was -0.808.
For CGUCGCC, the “RNAcompete 7-mer binding Z-score” value was -0.659.
The value for AUACCCU was -0.763; that for AAUCAGU was -0.305; that for CGUUGCA was -0.652.
For AAUUUGG, the “RNAcompete 7-mer binding Z-score” value amounted to 0.621.
In the case of AUAGAGU it was 0.322.
The value for AUAGGAU was 1.58; that for ACCGGAA was -0.00571.
In the case of AGUUUUC it was -0.675; in that of UUCCGCU, -0.646.
Regarding ACCUGCA, the “RNAcompete 7-mer binding Z-score” value was -0.74.
For UCUACCG, the “RNAcompete 7-mer binding Z-score” value is -0.727.
Consider GAACCAU, for which the “RNAcompete 7-mer binding Z-score” value was -0.629.
With UGUACCA, the “RNAcompete 7-mer binding Z-score” value was -0.552.
In the case of UGGACAA it was 0.667; in that of GACACUU, -0.782.
In the case of GUCAAAG it was -0.00571.
The value for AUGGAUA was 2.89.
For the sequence CUGACUC, the “RNAcompete 7-mer binding Z-score” value was -0.655.
Consider GGGGGAA, for which the “RNAcompete 7-mer binding Z-score” value amounted to 3.15.
The value for AUGUUCU was -0.834.
Consider UUUUCAA, for which the “RNAcompete 7-mer binding Z-score” value was -0.821.
In the case of ACGGCGG, the “RNAcompete 7-mer binding Z-score” value stood at 1.02.
In the case of CACUGUC it was -0.655; in that of ACUGCCC, -0.467; in that of GGUGUAC, 1.48.
The value for UGUUCCA was -0.668; that for GAAAAGG was 4.26; that for GCUAUCG was -0.47.
The value for UCAACUC was -0.733; that for AAGAUAC was -0.318.
Consider GACGCCU, for which the “RNAcompete 7-mer binding Z-score” value is -0.73.
Turning to CCAUCCG, the “RNAcompete 7-mer binding Z-score” value is -0.681.
The value for CUACUUG was -0.746; that for AAUCCCU was -0.704.
The value for GAUGUCG was 0.0658; that for AGAUUGG was 2.01.
Consider GUACGAU, for which the “RNAcompete 7-mer binding Z-score” value is 0.0755.
The value for CUGCCUU was -0.831; that for CUCUGAA was -0.727.
The value for AUCCAGG was 0.144.
In the case of UCAAUGC, the “RNAcompete 7-mer binding Z-score” value was -0.636.
The value for AGCGAAC was -0.171; that for GGUUAAA was 1.3; that for CAUCACC was -0.795.
As for GUGGCAG, the “RNAcompete 7-mer binding Z-score” value is 1.48.
Regarding ACCCGGG, the “RNAcompete 7-mer binding Z-score” value worked out at 0.0398.
With UACACAC, the “RNAcompete 7-mer binding Z-score” value was -0.552.
As to CCCCAUU, the “RNAcompete 7-mer binding Z-score” value is -0.837.
The value for UCAGGCC was -0.383.
Consider UGCUCUU, for which the “RNAcompete 7-mer binding Z-score” value is -0.815.
For the sequence UAGCCCA, the “RNAcompete 7-mer binding Z-score” value was -0.691.
The value for GCGGAAU was 1.29; that for UUCUAUC was -0.841; that for UGGCAUA was 0.257.
For the sequence UUAAGAC, the “RNAcompete 7-mer binding Z-score” value was -0.578.
The value for AUCCUGU was -0.883; that for GCGAGUC was 0.069; that for CCAGCCC was -0.0934.
The value for GAUGCCG was -0.246.
The value for ACGACCU was -0.873; that for UCCGCAU was -0.74; that for CUGGUGG was 1.64.
Turning to UGCAUGC, the “RNAcompete 7-mer binding Z-score” value was -0.639.
The value for CCGAGGU was 0.634.
Turning to AACUAUC, the “RNAcompete 7-mer binding Z-score” value is -0.724.
The value for AUAUGCA was -0.0609; that for GCGGAUC was 0.813; that for AGGAUUG was 1.5.
For the sequence GAGUUAC, the “RNAcompete 7-mer binding Z-score” value was -0.123.
The value for GCGGUAC was 0.28.
The value for CAACGUC was -0.516; that for UCCGACU was -0.818; that for ACCUCUA was -0.795.
In the case of AGUAACA it was -0.0285.
Turning to UAGUUGU, the “RNAcompete 7-mer binding Z-score” value is -0.435.
The value for CACUAGC was -0.633; that for UAUAACG was -0.597.
For the sequence GAAUGGA, the “RNAcompete 7-mer binding Z-score” value worked out at 4.02.
The value for AGGCCUG was -0.581; that for AUGUGCA was 0.313; that for AAAAACA was -0.136.
With CUUUAUC, the “RNAcompete 7-mer binding Z-score” value was -0.88.
In the case of GUCAGAC it was -0.392; in that of CUUGUGA, -0.662.
With AACAACG, the “RNAcompete 7-mer binding Z-score” value was -0.347.
For AAGAGAA, the “RNAcompete 7-mer binding Z-score” value stood at 0.391.
On to GUACUUU, for which the “RNAcompete 7-mer binding Z-score” value is -0.883.
Consider UACUAAU, for which the “RNAcompete 7-mer binding Z-score” value is -0.587.
The value for GUGCUGG was 1.83.
Turning to UCCUGAC, the “RNAcompete 7-mer binding Z-score” value is -0.841.
In the case of CACGUAG it was 0.0398; in that of CACAUCG, -0.558.
The value for GCCGCGC was -0.35.
For the sequence AAGAUCG, the “RNAcompete 7-mer binding Z-score” value was -0.0837.
UAAGAAG: the “RNAcompete 7-mer binding Z-score” value came out at 0.735.
UUGUCCG: the “RNAcompete 7-mer binding Z-score” value was -0.623.
Take UGGGGCU: the “RNAcompete 7-mer binding Z-score” value came to 2.3.
The value for AUGUGUA was 0.608.
As for GCACCAA, the “RNAcompete 7-mer binding Z-score” value was -0.425.
In the case of GCGCUGG it was 0.735.
The value for GUAAUGA was 0.173; that for AACCCCG was -0.506; that for UACGGAG was 0.93.
The value for UCCCGCU was -0.668; that for CAGAACU was -0.483.
